Experimental data reported in PubChem BioAssay AID485364 (National Center for Advancing Translational Sciences (NCATS), 2010).
Among all 360,000 compounds or so, about 11,000 (3.1%) were called active. The shares of active, inactive and inconclusive entries below differ from those in the screen. Calls follow the shape of the dose curve; as a rule, active = well fitted inhibition curve with a large enough effect; inconclusive = small, poorly fitted or top-dose-only effect; inactive = no such curve, though single readings can be large or run the other way. No potency is given beside an inconclusive call; the fits are too rough.

biological target: Schistosoma mansoni thioredoxin glutathione reductase (TGR) (UniProt Q962Y6); test: qHTS Assay for the Inhibitors of Schistosoma Mansoni Peroxiredoxins; settings: purified TGR, DTNB reduction, TNB absorbance 405 nm; series mostly up to 114 µM; also: nearly all actives have a fitted effect of over 60% in size
How it was run: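 First, TGR (20 nM dispensed) and NADPH were mixed with compound. Second, a 15 min room-temperature incubation followed. Third, further NADPH and then DTNB were added to start the reaction. Finally, TNB absorbance was monitored kinetically.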
Potency is read from the fitted curve at half-maximal effect; tags tell the direction and shape of the fitted curve.

Q: How did the Potency turn out when `COc1cccc(NC(=O)c2ccc(NC(C)=O)cc2)c1` was run?
A: The Potency was “inactive”.

Q: For `O=C(COC(=O)c1ccc([N+](=O)[O-])s1)NCCc1ccccc1`, which Potency is on record?
A: The Potency was inconclusive [inhibitor, full curve].

Q: With `COc1cc(/C=C2/C(=O)NN(c3cccc(F)c3)C2=O)ccc1OC(=O)c1ccco1` as the compound, how does the Potency read?
A: Its Potency is inconclusive [inhibitor, partial curve].

Q: Which Potency does the source give for `CC1CC(C)CN(CCCNC(=O)C2CCC(=O)N2C2CCCC2)C1` (stereo unspecified) here?
A: The Potency was “inactive”.

Q: Which Potency does the source give for `COC(=O)c1ccc([C@@H]2C[C@H]3CN(Cc4cccnc4)C(=O)[C@]34CCCN24)cc1` here?
A: The Potency was inconclusive [inhibitor, partial curve].

Q: For `Cc1cc(/C=C2\C(=O)NC(=O)N(c3ccc(Cl)cc3)C2=O)c(C)n1-c1sc2c(c1C#N)CCCC2`, which Potency is on record?
A: The Potency was inconclusive [inhibitor, full curve].

Q: For `CN(C)c1ccc(NC(=O)Nc2csc3ccccc23)cc1`, which Potency is on record?
A: Its Potency is inconclusive [inhibitor, full curve, poor fit].

Q: For `O=C(O)Cc1sc(Nc2cccc3ccccc23)nc1-c1ccccc1`, which Potency is on record?
A: Its Potency is inconclusive [inhibitor, full curve].

Q: `Cc1nc2cc(C(=O)O)ccc2s1` was tested. Which Potency did it give?
A: Its Potency is “inactive”.

Q: With `COc1ccc(C(=O)CSc2nc(C)cc(C)c2C(=O)Nc2ccccc2C)cc1` as the compound, how does the Potency read?
A: Its Potency is “inactive”.

Q: With `COC(=O)c1ccc(NC(=O)CC2C(=O)N(c3cccc(OC)c3)C(=O)N2Cc2ccco2)cc1` (stereo unspecified) as the compound, how does the Potency read?
A: The Potency was inconclusive [inhibitor, partial curve].

Q: `c1cc(C(c2nnnn2C2CCCC2)N2CCOCC2)ccn1` (stereo unspecified) was tested. Which Potency did it give?
A: The Potency was active: 28.2 µM.

Q: Which Potency does the source give for `Cc1ccc(NC(=O)CCOc2ccccc2)cc1` here?
A: Its Potency is inconclusive [inhibitor, partial curve].

Q: How did the Potency turn out when `CNC(=O)COC(=O)c1ccc2c(c1)NC(=O)C1CCCN21` (stereo unspecified) was run?
A: Its Potency is inconclusive [inhibitor, partial curve].

Q: Which Potency does the source give for `CN(C)c1ccc(NC(=O)COC(=O)c2cc(=O)c3ccccc3o2)cc1` here?
A: Its Potency is inconclusive [inhibitor, single point].

Q: For `CCC(O)CNc1nc(-n2nc(C)cc2C)nc2sc3c(c12)CCCC3` (stereo unspecified), which Potency is on record?
A: The Potency was inconclusive [inhibitor, full curve, poor fit].

Q: How did the Potency turn out when `COCCn1c(C)cc(/C=N/NC(=O)c2cc3ccccc3cc2O)c1C` was run?
A: Its Potency is “inactive”.

Q: `Cc1ccc(-c2c(=O)n(O)c3ccccc3[n+]2[O-])cc1` was tested. Which Potency did it give?
A: Its Potency is inconclusive [inhibitor, partial curve, poor fit].

Q: With `COCCn1nnnc1C(c1ccc2ncccc2c1)N1CCc2ccccc21` (stereo unspecified) as the compound, how does the Potency read?
A: Its Potency is inconclusive [inhibitor, full curve].

Q: How did the Potency turn out when `C[n+]1ccc(/C=N/Nc2nc(Cl)c(C#N)c(Cl)c2Cl)cc1` was run?
A: The Potency was active: 11.2 µM.

Q: `OC(C#CCN1CCCC1)(c1ccccc1)c1cccnc1` (stereo unspecified) was tested. Which Potency did it give?
A: The Potency was active: 31.6 µM.

Q: `COc1ccccc1NC(=O)CSc1nccc(-c2ccco2)n1` was tested. Which Potency did it give?
A: Its Potency is active: 25.1 µM.

Q: For `C=C1C[C@]2(O)[C@@]3(C)CCC(=O)C(C)(C)C3=C(O)C(=O)[C@@]2(C)[C@@H]2C(=O)O[C@@](C)(C(=O)OC)C(=O)[C@@]12C`, which Potency is on record?
A: The Potency was inconclusive [inhibitor, single point].

Q: For `Cn1cnnc1SCC(=O)c1c[nH]c2ccccc12`, which Potency is on record?
A: The Potency was inconclusive [inhibitor, single point].

Q: For `O=[N+]([O-])c1ccccc1CN1CCN(Cc2c[nH]c3ccccc23)CC1`, which Potency is on record?
A: Its Potency is “inactive”.

Q: For `Cc1ccccc1-c1nc(CS(=O)(=O)CC(=O)NC2CCCC2)c(C)o1`, which Potency is on record?
A: Its Potency is active: 39.8 µM.

Q: For `COc1ccc(/C=C/C(=O)OCC(=O)NCc2ccco2)c(OC)c1`, which Potency is on record?
A: The Potency was inconclusive [inhibitor, partial curve].

Q: Which Potency does the source give for `Clc1ccc(OCCN2CCCCC2)cc1Cl` here?
A: The Potency was “inactive”.

Q: For `CCC1CCCCN1C(=O)c1c(-c2ccccc2)noc1C` (stereo unspecified), which Potency is on record?
A: Its Potency is inconclusive [inhibitor, single point].

Q: Which Potency does the source give for `CCN(CC)C(=O)c1ccc2c(c1)C1C=CCC1C(C(=O)O)N2` (stereo unspecified) here?
A: The Potency was active: 0.447 µM.

Q: Which Potency does the source give for `Cc1occc1C(=O)NCc1ccccc1F` here?
A: The Potency was inconclusive [inhibitor, partial curve].

Q: With `CCOc1ccccc1Nc1sc(C(=O)c2ccc(Cl)cc2)c(N)c1S(=O)(=O)c1ccccc1` as the compound, how does the Potency read?
A: The Potency was “inactive”.

Q: How did the Potency turn out when `Cc1nnc(NC(=O)CSc2nc(C3CCCCC3)nc3ccccc23)s1` was run?
A: The Potency was inconclusive [inhibitor, single point].

Q: With `Fc1cccc(Nc2cc(-n3cccn3)ncn2)c1` as the compound, how does the Potency read?
A: Its Potency is “inactive”.

Q: `CCN(C(C)=O)c1nc(CCl)cs1` was tested. Which Potency did it give?
A: Its Potency is inconclusive [inhibitor, partial curve].

Q: Which Potency does the source give for `Cc1ccc(NC(=O)Cn2c(=O)n(CCCCC(=O)NCc3ccc4c(c3)OCO4)c(=O)c3ccccc32)cc1` here?
A: Its Potency is “inactive”.

Q: Which Potency does the source give for `COc1ccc(CN2CCN(Cc3ccc4cc(F)ccc4n3)CC2CCO)c(C)c1C` (stereo unspecified) here?
A: Its Potency is active: 22.4 µM.

Q: How did the Potency turn out when `CC(C)(C)n1nc2c(c1NC(=O)c1ccc(S(=O)(=O)N3CCCC3)cc1)CS(=O)C2` (stereo unspecified) was run?
A: The Potency was inconclusive [inhibitor, partial curve].

Q: `CC(C)CCN(C)c1ccc(/C=N/n2cnnc2)cc1` was tested. Which Potency did it give?
A: The Potency was inconclusive [inhibitor, partial curve].

Q: Which Potency does the source give for `COc1ccc(S(=O)(=O)CC(=O)Nc2nnc(C(F)(F)F)s2)cc1` here?
A: Its Potency is inconclusive [inhibitor, single point].

Q: `O=C1C(=O)N(CCN2CCOCC2)C(c2cccc(Cl)c2)/C1=C(\O)c1ccc2c(c1)OCCO2` (stereo unspecified) was tested. Which Potency did it give?
A: The Potency was inconclusive [inhibitor, partial curve].

Q: With `Cc1cc(=O)oc2cc(OCC(=O)Nc3c(Cl)cccc3C(F)(F)F)ccc12` as the compound, how does the Potency read?
A: The Potency was “inactive”.

Q: With `Cc1ccc(Nc2nc(C(=O)N3CCC(C(=O)NCCN4CCOCC4)CC3)cs2)cc1` as the compound, how does the Potency read?
A: Its Potency is “inactive”.

Q: For `COc1cccc(NC(=O)CN(C)C(=O)c2ccc(-c3ccc(Cl)cc3)o2)c1`, which Potency is on record?
A: The Potency was inconclusive [inhibitor, partial curve].

Q: `CCCCC(=O)Nc1ccccc1N1CCOCC1` was tested. Which Potency did it give?
A: The Potency was “inactive”.

Q: Which Potency does the source give for `Cc1ccc(S(=O)(=O)C(CNC(=O)C(=O)NCc2ccc(Cl)cc2)c2ccco2)cc1` (stereo unspecified) here?
A: Its Potency is inconclusive [inhibitor, partial curve].

Q: With `CCc1cc2cc(C(=O)Nc3ccccc3F)sc2s1` as the compound, how does the Potency read?
A: The Potency was inconclusive [inhibitor, single point].

Q: `O=C(CC1C(=O)NCCN1Cc1cccc(F)c1)NCCCN1CCCC1=O` (stereo unspecified) was tested. Which Potency did it give?
A: Its Potency is “inactive”.

Q: How did the Potency turn out when `COc1ccc(Cn2nnnc2C(c2cccs2)N2CCN(c3ccccc3)CC2)cc1` (stereo unspecified) was run?
A: The Potency was “inactive”.

Q: `Cc1ccc(Cl)cc1N1CCN(C(=O)CCS(=O)(=O)c2ccc3c(c2)oc(=O)n3C)CC1` was tested. Which Potency did it give?
A: The Potency was inconclusive [inhibitor, partial curve].

Q: For `COc1cc(/C=C/C(=O)OCC(=O)Nc2oc(C)c3c(C)n[nH]c(=O)c23)ccc1OC(F)F`, which Potency is on record?
A: The Potency was active: 22.4 µM.

Q: For `Cc1c(C)n(C)c2ccc(C(=O)NCCc3ccco3)cc12`, which Potency is on record?
A: Its Potency is active: 35.5 µM.

Q: For `O=C(NNc1c2ccccc2nc2ccccc12)c1cccc(O)c1`, which Potency is on record?
A: The Potency was “inactive”.

Q: How did the Potency turn out when `Cc1cccc(COc2ccccc2C(=O)N(C)CC(=O)Nc2cccc(F)c2)c1` was run?
A: Its Potency is “inactive”.

Q: For `COC(=O)c1c(NC(=O)CSc2nnc(Cn3nnc4ccccc43)n2C)sc(C)c1C`, which Potency is on record?
A: Its Potency is inconclusive [inhibitor, full curve].

Q: Which Potency does the source give for `c1ccc2c(N3CCCC3)nc(-c3ccncc3)nc2c1` here?
A: Its Potency is “inactive”.

Q: `O=C(c1ccccc1)[C@@H]1[C@@H](C(=O)c2ccc(F)cc2)[C@@]2(C(=O)Nc3ccccc32)[C@H]2c3ccccc3C=CN12` was tested. Which Potency did it give?
A: Its Potency is inconclusive [inhibitor, partial curve].

Q: How did the Potency turn out when `O=C(C[n+]1ccccc1)Nc1c(Cl)cc(Cl)cc1Cl` was run?
A: The Potency was active: 8.91 µM.

Q: Which Potency does the source give for `O=C1NN(c2ccccc2)C(=O)/C1=C/c1ccc(Sc2ccc(Cl)cc2)o1` here?
A: The Potency was inconclusive [inhibitor, partial curve].

Q: `CCOc1ccc(C2CC(c3cccc(C)c3)n3nc(N)nc3N2)cc1` (stereo unspecified) was tested. Which Potency did it give?
A: Its Potency is inconclusive [inhibitor, single point].

Q: For `COc1ccc(CNCC(O)(c2ccc(Cl)cc2)c2ccc(Cl)cc2)cc1`, which Potency is on record?
A: The Potency was “inactive”.

Q: For `Cc1onc(-c2c(Cl)cccc2Cl)c1C(=O)Nc1c(C)n(C)n(-c2ccccc2)c1=O`, which Potency is on record?
A: The Potency was “inactive”.

Q: Which Potency does the source give for `COC(=O)C1=C(c2c(C)noc2C)C[C@@H]2CC[C@H]1N2C(=O)NCc1ccc2c(c1)OCO2` here?
A: Its Potency is inconclusive [inhibitor, single point].

Q: How did the Potency turn out when `COc1ccc(-c2nc(CN3CCC(c4ccccc4)CC3)c(C)o2)cc1OC` was run?
A: Its Potency is inconclusive [inhibitor, partial curve].

Q: Which Potency does the source give for `O=C(Nc1nccs1)c1ccc(Br)cc1` here?
A: The Potency was inconclusive [inhibitor, full curve, poor fit].

Q: With `CC(=O)c1ccc(S(=O)(=O)N(C)CCCC(=O)NCc2ccc3c(c2)OCO3)cc1` as the compound, how does the Potency read?
A: The Potency was inconclusive [inhibitor, partial curve].

Q: Which Potency does the source give for `CCOc1ccc(-n2c(O)c(N=Nc3ccc([N+](=O)[O-])cc3)c(=O)[nH]c2=O)cc1` here?
A: Its Potency is inconclusive [inhibitor, partial curve].

Q: Which Potency does the source give for `CCOC(=O)c1ccc(NC(=S)N2CCN(CCN=CC3=C(O)CC(C)(C)CC3=O)CC2)cc1` here?
A: Its Potency is active: 1.12 µM.

Q: Which Potency does the source give for `CCc1ccc(C(=O)NNc2ccc(C)c(Cl)c2)cc1` here?
A: Its Potency is inconclusive [inhibitor, partial curve].

Q: Which Potency does the source give for `Cc1ccc2nc(SCC(=O)NCc3ccco3)c(C#N)cc2c1` here?
A: Its Potency is inconclusive [inhibitor, partial curve, poor fit].

Q: For `CCOC(=O)C1(S(=O)(=O)c2ccc(Cl)cc2)CCN(Cc2ccc(Cl)cc2)CC1`, which Potency is on record?
A: Its Potency is “inactive”.
